# This is one part of the list. Repeats are few or missing, and single values can be far off.
# What was measured:
# Assay in all cases: cell count relative to DMSO control; melanoma cells; higher = more viable cells
# Settings in all cases: library dose: standard library concentration; 72 h
# [1] = test system: A101D
# [2] = test system: A2058
# [3] = test system: A375
# [4] = test system: 501Mel
# 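Note: cells treated in 1,536-well plates, then fixed and DAPI-stained, with nuclei counted from automated high-throughput microscope images.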
smiles,measurement,setting,value
"O=C(/C=C/c1cccnc1)NCCCCC1CCN(C(=O)c2ccccc2)CC1 + O=C(O)c1ccc(-c2c[nH]c3ncc(-c4ccccc4)cc23)cc1C1CCCC1 [GSK650394] (first compound 0.05 µM, partner dose 0.8 µM)",cell count,[1],84.9%
same,cell count,[2],97.4%
same,cell count,[3],119%
"O=C(/C=C/c1cccnc1)NCCCCC1CCN(C(=O)c2ccccc2)CC1 + CNC(=O)c1cc(Oc2ccc(NC(=O)Nc3ccc(Cl)c(C(F)(F)F)c3)cc2)ccn1 [sorafenib] (first compound 0.05 µM, partner dose 2 µM)",cell count,[1],102%
same,cell count,[2],118%
same,cell count,[3],111%
"CC1(C)CCC(c2ccc(Cl)cc2)=C(CN2CCN(c3ccc(C(=O)NS(=O)(=O)c4ccc(N[C@H](CCN5CCOCC5)CSc5ccccc5)c(S(=O)(=O)C(F)(F)F)c4)cc3)CC2)C1 + Cn1cnc2c(F)c(Nc3ccc(Br)cc3Cl)c(C(=O)NOCCO)cc21 [selumetinib] (first compound 2 µM, partner dose 0.075 µM)",cell count,[1],46.6%
same,cell count,[2],101%
same,cell count,[3],79.9%
"O=C(/C=C/c1cccnc1)NCCCCC1CCN(C(=O)c2ccccc2)CC1 + NC(=O)Nc1cc(-c2cccc(F)c2)sc1C(=O)N[C@H]1CCCNC1 [AZD7762] (first compound 0.05 µM, partner dose 0.1 µM)",cell count,[1],61.2%
same,cell count,[2],101%
same,cell count,[3],48%
"O=C(/C=C/c1cccnc1)NCCCCC1CCN(C(=O)c2ccccc2)CC1 + Cn1cc(/C=C2\C(=O)Nc3cccnc32)c2ccccc21 [GW441756] (first compound 0.05 µM, partner dose 2 µM)",cell count,[4],66%
same,cell count,[1],93.9%
same,cell count,[2],113%
same,cell count,[3],152%
"CC1(C)CCC(c2ccc(Cl)cc2)=C(CN2CCN(c3ccc(C(=O)NS(=O)(=O)c4ccc(N[C@H](CCN5CCOCC5)CSc5ccccc5)c(S(=O)(=O)C(F)(F)F)c4)cc3)CC2)C1 + NC(=O)c1ccc(N(C(N)=O)c2c(F)cccc2F)nc1-c1ccc(F)cc1F [VX702] (first compound 2 µM, partner dose 2 µM)",cell count,[1],47.2%
same,cell count,[2],110%
same,cell count,[3],59.8%
"Cc1ccc(Nc2nccc(N(C)c3ccc4c(C)n(C)nc4c3)n2)cc1S(N)(=O)=O [Pazopanib] + COc1ccc2c(c1)CCC1C2CCC2(C)C(NCCCCCCN3C(=O)C=CC3=O)CCC12 [U73122] (first compound 2 µM, partner dose 2 µM)",cell count,[4],105%
same,cell count,[1],75.9%
same,cell count,[2],91.9%
same,cell count,[3],87.6%
"CC1(C)CCC(c2ccc(Cl)cc2)=C(CN2CCN(c3ccc(C(=O)NS(=O)(=O)c4ccc(N[C@H](CCN5CCOCC5)CSc5ccccc5)c(S(=O)(=O)C(F)(F)F)c4)cc3)CC2)C1 + CCCCCCCCc1ccc(CCC(N)(CO)CO)cc1 [fingolimod] (first compound 2 µM, partner dose 10 µM)",cell count,[1],5.8%
same,cell count,[2],5.75%
same,cell count,[3],27.9%
"CC1(C)CCC(c2ccc(Cl)cc2)=C(CN2CCN(c3ccc(C(=O)NS(=O)(=O)c4ccc(N[C@H](CCN5CCOCC5)CSc5ccccc5)c(S(=O)(=O)C(F)(F)F)c4)cc3)CC2)C1 + C=CCNC1=C2C[C@@H](C)C[C@H](OC)[C@H](O)[C@@H](C)/C=C(\C)[C@H](OC(N)=O)[C@@H](OC)/C=C\C=C(/C)C(=O)NC(=CC1=O)C2=O [Tanespimycin] (first compound 2 µM, partner dose 0.01 µM)",cell count,[1],27%
same,cell count,[2],86.4%
same,cell count,[3],58.6%
"CC1(C)CCC(c2ccc(Cl)cc2)=C(CN2CCN(c3ccc(C(=O)NS(=O)(=O)c4ccc(N[C@H](CCN5CCOCC5)CSc5ccccc5)c(S(=O)(=O)C(F)(F)F)c4)cc3)CC2)C1 + Clc1ccc(Nc2nnc(Cc3ccncc3)c3ccccc23)cc1 [vatalanib] (first compound 2 µM, partner dose 10 µM)",cell count,[1],24.2%
same,cell count,[2],67.3%
same,cell count,[3],30.9%
"O=C(/C=C/c1cccnc1)NCCCCC1CCN(C(=O)c2ccccc2)CC1 + CO[C@@H]1[C@H](N(C)C(=O)c2ccccc2)C[C@H]2O[C@]1(C)n1c3ccccc3c3c4c(c5c6ccccc6n2c5c31)C(=O)NC4 [Midostaurin] (first compound 0.05 µM, partner dose 0.4 µM)",cell count,[1],64.2%
same,cell count,[2],70.1%
same,cell count,[3],71.6%
"Cc1ccc(Nc2nccc(N(C)c3ccc4c(C)n(C)nc4c3)n2)cc1S(N)(=O)=O [Pazopanib] + CN(c1ncccc1CNc1nc(Nc2ccc3c(c2)CC(=O)N3)ncc1C(F)(F)F)S(C)(=O)=O [PF562271] (first compound 2 µM, partner dose 0.4 µM)",cell count,[1],67.1%
same,cell count,[2],109%
same,cell count,[3],62.9%
"CC1(C)CCC(c2ccc(Cl)cc2)=C(CN2CCN(c3ccc(C(=O)NS(=O)(=O)c4ccc(N[C@H](CCN5CCOCC5)CSc5ccccc5)c(S(=O)(=O)C(F)(F)F)c4)cc3)CC2)C1 + Cc1nc(Nc2ncc(C(=O)Nc3c(C)cccc3Cl)s2)cc(N2CCN(CCO)CC2)n1 [dasatanib] (first compound 2 µM, partner dose 0.02 µM)",cell count,[1],41.6%
same,cell count,[2],66.5%
same,cell count,[3],52.1%
"O=C(/C=C/c1cccnc1)NCCCCC1CCN(C(=O)c2ccccc2)CC1 + Cc1ccc(NC(=O)c2cccc(N(C)C)c2)cc1NC(=O)c1ccc(O)cc1 [ZM336372] (first compound 0.05 µM, partner dose 10 µM)",cell count,[1],93.4%
same,cell count,[2],154%
same,cell count,[3],119%
"Cc1ccc(Nc2nccc(N(C)c3ccc4c(C)n(C)nc4c3)n2)cc1S(N)(=O)=O [Pazopanib] + OCCn1cc(-c2cnc3nnn(Cc4ccc5ncccc5c4)c3n2)cn1 [PF04217903] (first compound 2 µM, partner dose 5 µM)",cell count,[1],89.5%
same,cell count,[2],102%
same,cell count,[3],84.4%
"O=C(/C=C/c1cccnc1)NCCCCC1CCN(C(=O)c2ccccc2)CC1 + Cc1cc(N2CCOCC2)cc2[nH]c(-c3c(NC[C@@H](O)c4cccc(Cl)c4)cc[nH]c3=O)nc12 [BMS536924] (first compound 0.05 µM, partner dose 1 µM)",cell count,[1],77.2%
same,cell count,[2],80.1%
same,cell count,[3],112%
"O=C(/C=C/c1cccnc1)NCCCCC1CCN(C(=O)c2ccccc2)CC1 + NC1(c2ccc(-c3nc4ccn5c(=O)[nH]nc5c4cc3-c3ccccc3)cc2)CCC1 [MK2206] (first compound 0.05 µM, partner dose 2 µM)",cell count,[1],77.9%
same,cell count,[2],72.1%
same,cell count,[3],118%
"CC1(C)CCC(c2ccc(Cl)cc2)=C(CN2CCN(c3ccc(C(=O)NS(=O)(=O)c4ccc(N[C@H](CCN5CCOCC5)CSc5ccccc5)c(S(=O)(=O)C(F)(F)F)c4)cc3)CC2)C1 + Nc1ncn([C@H]2C[C@H](O)[C@@H](CO)O2)c(=O)n1 [decitabine] (first compound 2 µM, partner dose 0.5 µM)",cell count,[1],39%
same,cell count,[2],82.2%
same,cell count,[3],94.4%
"CC1(C)CCC(c2ccc(Cl)cc2)=C(CN2CCN(c3ccc(C(=O)NS(=O)(=O)c4ccc(N[C@H](CCN5CCOCC5)CSc5ccccc5)c(S(=O)(=O)C(F)(F)F)c4)cc3)CC2)C1 + O=C(CCCCCCC(=O)Nc1ccccc1)NO [vorinostat] (first compound 2 µM, partner dose 0.4 µM)",cell count,[1],46%
same,cell count,[2],94.3%
same,cell count,[3],60.7%
"Cc1ccc(Nc2nccc(N(C)c3ccc4c(C)n(C)nc4c3)n2)cc1S(N)(=O)=O [Pazopanib] + O=C(O)c1ccc2c(c1)nc(Nc1cccc(Cl)c1)c1ccncc12 [CX4945] (first compound 2 µM, partner dose 2 µM)",cell count,[1],70.4%
same,cell count,[2],82.4%
same,cell count,[3],68%
"Cc1ccc(Nc2nccc(N(C)c3ccc4c(C)n(C)nc4c3)n2)cc1S(N)(=O)=O [Pazopanib] + Nc1nc(F)nc2c1ncn2[C@@H]1O[C@H](CO)[C@@H](O)[C@@H]1O [fludarabine] (first compound 2 µM, partner dose 1 µM)",cell count,[1],75.6%
same,cell count,[2],75%
same,cell count,[3],31.9%
"Cc1ccc(Nc2nccc(N(C)c3ccc4c(C)n(C)nc4c3)n2)cc1S(N)(=O)=O [Pazopanib] + CS(=O)(=O)CCNCc1ccc(-c2ccc3ncnc(Nc4ccc(OCc5cccc(F)c5)c(Cl)c4)c3c2)o1 [lapatinib] (first compound 2 µM, partner dose 4 µM)",cell count,[1],60%
same,cell count,[2],82.7%
same,cell count,[3],125%
"O=C(/C=C/c1cccnc1)NCCCCC1CCN(C(=O)c2ccccc2)CC1 + COc1cc2c(Oc3ccc4[nH]c(C)cc4c3F)ncnc2cc1OCCCN1CCCC1 [cediranib] (first compound 0.05 µM, partner dose 2 µM)",cell count,[1],85.4%
same,cell count,[2],94.8%
same,cell count,[3],139%
"CC1(C)CCC(c2ccc(Cl)cc2)=C(CN2CCN(c3ccc(C(=O)NS(=O)(=O)c4ccc(N[C@H](CCN5CCOCC5)CSc5ccccc5)c(S(=O)(=O)C(F)(F)F)c4)cc3)CC2)C1 + CN(NC(=O)CC(=O)NN(C)C(=S)c1ccccc1)C(=S)c1ccccc1 [STA4783] (first compound 2 µM, partner dose 0.03 µM)",cell count,[1],29.7%
same,cell count,[2],22.5%
same,cell count,[3],60.3%
"O=C(/C=C/c1cccnc1)NCCCCC1CCN(C(=O)c2ccccc2)CC1 + Nc1ncn([C@H]2C[C@H](O)[C@@H](CO)O2)c(=O)n1 [decitabine] (first compound 0.05 µM, partner dose 0.5 µM)",cell count,[1],82.8%
same,cell count,[2],86.8%
same,cell count,[3],84.1%
"O=C(/C=C/c1cccnc1)NCCCCC1CCN(C(=O)c2ccccc2)CC1 + Cn1cnc2c(F)c(Nc3ccc(Br)cc3Cl)c(C(=O)NOCCO)cc21 [selumetinib] (first compound 0.05 µM, partner dose 0.075 µM)",cell count,[1],70.1%
same,cell count,[2],92%
same,cell count,[3],97.7%
"CC1(C)CCC(c2ccc(Cl)cc2)=C(CN2CCN(c3ccc(C(=O)NS(=O)(=O)c4ccc(N[C@H](CCN5CCOCC5)CSc5ccccc5)c(S(=O)(=O)C(F)(F)F)c4)cc3)CC2)C1 + Cc1ccc(NC(=O)c2cccc(N(C)C)c2)cc1NC(=O)c1ccc(O)cc1 [ZM336372] (first compound 2 µM, partner dose 10 µM)",cell count,[1],32%
same,cell count,[2],72.9%
same,cell count,[3],76.6%
